In all, about 33,000 sequences were measured (“E-score (-0.5 to 0.5)”: median about -0.04, highest 2% from about 0.36 on). The list shows a part of the results.
The sequences below were run against T1, Hmlalpha2 (UniProt P0CY09) (assay: PBM E-score (8-mer binding enrichment) (E-score (-0.5 to 0.5)); higher = stronger / more preferred TF binding; most listed sequences are background and not binding sites). Conditions: protein concentration: 200 nM; construct: GST-full length.
T1 sequence: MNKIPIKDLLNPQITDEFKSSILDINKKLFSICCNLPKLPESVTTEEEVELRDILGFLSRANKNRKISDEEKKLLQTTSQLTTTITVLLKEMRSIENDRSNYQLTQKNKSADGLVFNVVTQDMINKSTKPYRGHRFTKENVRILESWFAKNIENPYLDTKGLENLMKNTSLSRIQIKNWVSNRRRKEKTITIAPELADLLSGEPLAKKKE
Summary of the method: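 Using PURExpress in vitro transcription/translation, GST-tagged yeast transcription factors were made in full-length or DNA-binding-domain form. These were applied at about 100-200 nM to double-stranded universal all-10-mer Agilent arrays, and bound protein was detected with fluorescent anti-GST. Scans were normalised with masliner before the Universal PBM Analysis Suite assigned E-scores to ungapped eight-base words pooled with their reverse complements.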

Sequence	PBM E-score
ATGTGAGG	0.107
ATTATAGA	0.0519
CACTTAGG	0.0592
CGGTTACG	0.0305
CAGGGGAG	-0.169
CTCTTCGC	-0.205
ACAATAAC	0.209
CCGGCGAC	-0.323
AGGGTTCC	-0.173
GCAACTCA	0.0124
TAGCCTGA	0.0493
CCGCATCC	-0.124
CTACCCAG	-0.138
ACAAAAGG	-0.107
CTGAAGCA	-0.13
ACGTAATA	0.431
GGCCCTTA	-0.227
GGGCGAAA	-0.0494
ATTCTGCC	-0.221
AATAGAAG	-0.0632
CAGAGACC	-0.156
AAGTTCTG	0.115
TAGCAGGA	-0.176
CTTAGAAA	0.0751
CTGCTCGC	-0.252

Sequence	PBM E-score
CTGGATAC	-0.0481
CTCGCCTC	-0.211
CGCGCGGA	-0.0877
AACCTCGG	-0.193
GGTTAGAC	-0.00223
AGTTAGAT	0.102
AGAGACTG	-0.296
ATCACCGC	-0.0669
ACTCGCCA	-0.0518
ACCGAGCA	-0.175
GGAATGCA	-0.206
ACGCGTTA	0.342
ACGAGTTG	0.129
GTTTATCA	0.126
AACTAAGT	0.161
CCTTCACG	-0.00517
CCCTGCAG	-0.0788
CGTGAGAG	-0.281
GGCCAAGA	-0.271
CCAAAGTC	-0.141
GGCTGGAA	-0.126
ATGTGTCC	0.0563
CGTTTTGC	0.0605
CTCGCACA	-0.0971
GCTGGGGA	-0.272

Sequence	PBM E-score
CTGACAGC	-0.246
CAAAAACC	-0.0389
GCATTACA	0.428
CTATTCAC	0.15
AAAACCCG	0.0195
AAGAGTGT	-0.0244
CAAGAAGA	-0.0574
GGGTTAGA	-0.142
GATAGGAC	-0.26
ACATCACT	0.233
CATCAACG	0.0679
CAGCAATC	-0.22
TGGTACCA	-0.258
ACGACATG	0.382
ACCTACAT	0.254
GGATAGAC	-0.0677
ACGGTACT	-0.0126
GGGGCTAC	-0.196
CGCAAGAG	-0.0527
CACGAACC	0.0734
AACATGAT	0.439
TAATCCTA	0.0524
AAGCGATC	0.0419
AAACACAC	0.34
TATGGAAA	-0.119

Sequence	PBM E-score
CGCCGAAA	-0.152
CGGACATC	-0.265
GGTCAAGA	-0.105
ATATGGCG	-0.138
AGTGGATC	-0.191
CGCGGACC	-0.198
CAGGATCA	-0.0775
CCTACTAG	-0.0463
CAGGGTAA	-0.11
AAAATAAC	0.148
AGCACACG	0.134
CACGTGAA	0.108
AGCCCAAT	0.0175
ACTTTTCA	0.0497
AGGCAATC	-0.0959
CCACTGGG	-0.211
CCTTTGTA	0.295
ACGAATGC	0.107
GTCGGCAC	-0.22
CGGGATCA	-0.135
AAGTACGT	0.257
ATCGCTTG	-0.149
GCCGAGAC	-0.164
ACTTTCAG	-0.119
GCACTCCA	-0.115

Sequence	PBM E-score
CACTCCGC	-0.249
CATATCTC	-0.0734
ACGATCAT	0.0309
GGTACGAC	-0.239
CAGACAGA	0.0294
CATCCCAA	-0.0513
GGCTACTA	-0.00399
CTCGATGC	-0.227
ACCCCGAC	-0.278
CGGGCTAA	-0.207
TAATAGAA	0.211
AGTCGAGG	-0.0737
CCTTGGGA	-0.172
ACTTACCA	0.0557
CTCAACTA	0.0819
AGACAGAC	0.0667
AGGGTCAG	-0.27
ATATAGAA	0.211
GTAGACTA	0.0977
AAAGTCCA	-0.107
GAACGAAC	-0.0668
AGCCTGGA	-0.352
ACTATCCT	-0.296
AGGGCTAG	-0.172
AATCCCTA	0.00595

Sequence	PBM E-score
AGGTGGGG	-0.213
GTCCCTGA	-0.107
CATAGCGA	0.133
CGTCACCC	-0.174
CACTTTCG	-0.0448
CACAGTTC	-0.0353
AAAATGGC	-0.0978
GTCCAGAA	0.0885
GAGATGGC	-0.12
CCGTCCCG	-0.146
ATGACTGG	-0.205
CCTTATGC	-0.0984
GAGCTATC	-0.142
GCGGCGGA	-0.0377
TCTTACCA	0.0183
TGCATTAA	0.248
CCGGCAAC	-0.14
CAAGTAGA	0.0289
AGGGACGA	-0.0784
CTAGGAAA	-0.156
CAGGGGGG	-0.374
AGCTATTG	0.13
CCTACCGC	-0.0837
AGGTGTTC	0.0623
ATGTCGCA	0.132

Sequence	PBM E-score
CAGAGGGA	-0.308
ATACGCGC	0.322
AGTCGTTG	-0.11
CGGAACAC	0.167
AAGAAGAA	0.0987
GCGATATA	0.067
ACTTCCTG	-0.031
CGATGCAG	-0.357
ATACTTAC	0.298
GAATCAAA	-0.144
TAATGCCA	0.114
GCCTCAAC	0.044
ATAAGGGG	-0.0723
ACTTATCA	-0.116
TAGACACA	0.194
AGTTGTCA	0.138
TCTATCCA	-0.135
CCCGAATA	-0.0607
AAGTAGAC	0.0105
AAATTATT	0.209
TGCTGTAA	0.17
CATGGCAA	0.101
